The test system of test [1] is UACC-257 melanoma. Description: NCI-60 one-dose screen, 48 h (100 = growth as untreated, 0 = no growth, -100 = all killed). As to conditions: 2.5 mM.
Test [2] concerns M14 melanoma. The description is as above. The settings on record: 2.5 mM.

The text below walks through data of PubChem BioAssay (NCI).

A structure can be active in one record and inactive in another.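 Plates (96-well) were seeded with cells, treated with compound at one concentration, and incubated for 48 hours before percent growth was determined.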 Certain results were filed several times, with different values. The other results are left out here. The calls were made as follows: active = growth percent below 10; inactive = the rest. There may be further records. These are repeated runs of one drug, at its own concentration, as given; each value is one run. Signs of the kind (2×) count equal records among those shown.

For the compound `O=c1[nH]cc(F)c(=O)[nH]1`, the growth entry in test [1] (runs of 1995) is “inactive: 30.5, 29.1, 17.3 (2×), 15.1, 35.9, 18, 32.7, 29.8, 27.3, 15.9, 22 (2×), 13.9 (2×), 26.2, 14.7, 23.8, 20, 21.6, 26.9, 34.1, 31.2, 22.5, 18.1, 12.6, 13.5, 10.3% and active: 9, 8.34, 6.23, -19.5, -5.27, -1.24, 5.31, -47.3, -8.14, 7.04, 5.27%”; in test [1] (runs of 1996), “inactive: 30.5, 37.8, 35.7, 10.3 (2×), 21.7, 14, 33.5, 34.6 (2×), 25, 40.6, 19.1, 38.8, 34.1, 29.5, 43.8, 23.4, 35.4, 32.8 (3×), 31.9, 21.6, 20, 28.3, 43.9, 17.9, 23.1, 102, 34.2, 22.2, 55.6, 19.9, 26.1, 22.3, 31.1, 39.2, 62.6, 46, 32.7, 21.1, 17.3, 25.5, 21.5, 18, 27.2, 28.9, 39.5, 19.6% and active: 5.6, -47.9, 6.33, -8.39, 7.31, -3.44, -12.7, 6.7%”; in test [1] (runs of 1997), “inactive: 25.5, 21.4, 45, 26.6, 10.3, 25.9, 17.6, 23.1, 20.8, 15.5 (2×), 19.4 (2×), 29.5, 20.9, 16.3, 25.1, 30.8, 36.6 (2×), 35.4, 26.8, 28.2, 24.5, 52.7, 25.6, 11.2, 12.9, 32.2, 19.3, 30.5, 22, 21.2, 22.8, 16.5, 21.7, 22.1, 25.8, 23.7% and active: 9.48, -16.7, 8.14, -6.31, 7%”; in test [1] (runs of 1998), “inactive: 10.2, 22.5, 23.2, 18.1 (2×), 36.6, 49.5, 33.2, 34.6, 48.6, 33.1, 36.1, 23.1, 33.5, 43.2, 15.8, 22.8, 14.1% and active: 3.84, -11.2, -100, 5.82%”; in test [1] (runs of 1999), “inactive: 56.4%, 16.4%, 54.4% and active: -30.2, -100 (2×), -70.6, -33.1, -68.9, -59.4, -54.7, -65.2, -84.5, -80.1%”; in test [1] (runs of 2000) it was “active: -84.2, -58.3, 0.358, -40.3%”. Besides, the growth result is “inactive: 25.6, 19, 37.9, 17.1, 28.8, 21.1, 43.1, 35.9, 37.1, 26.8, 24.2, 39.2, 25.5, 31.2, 35.5, 21.4, 43.5, 17, 28.7% and active: 8.16%” in test [2] (runs of 1991); “inactive: 32.3 (2×), 26.3, 26.1 (3×), 29.5, 41.2 (2×), 13.3, 30.4, 32.9, 41.9, 32.5, 33.2, 27.5, 44.6, 54.9 (2×), 23.9, 14.1, 36.8, 53.5, 44.2, 31.2, 15.7, 22.1, 31.3 (2×), 19.1 (2×), 28.1, 43.5, 30.5, 27.3, 33.6, 27.9, 29.2, 45.2, 33.4, 35, 52, 28.4, 25.2 (2×), 12.6, 47.2, 27.1, 44.4, 22.4, 23, 24.2 (2×), 24.3, 32, 18, 30.3, 12.4, 26.8, 15.4, 19.8, 33.3, 24, 33.7 (2×), 38.7, 24.4, 19.3, 11.8, 23.6, 40.5, 26.9, 37.3, 18.7, 36.4, 36.6, 23.5 (2×), 23.8, 29.1, 12.5, 17.5, 27.2, 30.1, 38.1, 23.1, 47.4, 11.6, 33.5, 32.4 (2×), 35.6, 33.9, 23.4, 20.3, 25.6, 29.6 (2×), 39.3, 22.7, 33.8, 39.4, 41.7, 15.1, 26.7, 45.1, 18.1, 24.9, 29.4, 57.4, 26% and active: -19.7%, 9.7%, 7.57%” in test [2] (runs of 1992); “active: 8.12%, 9.1% and inactive: 27.1, 12.1, 33.2, 44.2, 21.1, 34.7, 31.2, 39 (2×), 45, 37.4, 30, 15.1, 40.7, 39.1, 46.9, 30.4 (2×), 20.7, 29.9, 47.1, 47.6, 23.8, 32.5 (2×), 33.8, 27.6, 39.8, 21, 32.3, 53.6, 33.3 (2×), 17.9, 94.9, 50.2, 18.2, 82.9, 19.5, 31.6 (2×), 11.9, 20.6, 52.4, 40.3, 33%” in test [2] (runs of 1993); “inactive: 16.3, 33.1 (2×), 31.6, 35.2, 34.7, 46, 36.4, 28.9, 35, 40.5, 33.6, 17.2, 33.4, 31.9, 44.6, 30.3, 36 (2×), 37.8, 14.5, 32.9, 11.4, 28.3, 31.1, 33.2, 29.9, 46.1, 28.5, 30.9, 34.3, 30.8, 16.2, 43.2%” in test [2] (runs of 1994); “inactive: 29 (2×), 16.6, 24.7, 21.2, 27.4, 37.7, 20.8, 35.2, 32.8, 27.3, 25.9, 39, 23.8, 20.6, 19.5, 34.3, 46.8, 45.3, 38.7, 35.4, 30.3, 31.8, 37.3, 19.2, 22.5, 30.6, 19.6, 23.2, 15, 41% and active: -31.3%, -3.6%, 6.82%” in test [2] (runs of 1995); “inactive: 48.3, 36.1, 22.3, 35, 20.8, 22.9, 26.3, 28.5, 45.6, 26.4, 33.1, 23, 36.4, 32.6, 29.8 (2×), 31.5, 35.6, 39.2 (2×), 31.9, 41.4, 26.5, 43.9, 25.7, 52.9, 35.3 (2×), 31.4, 32.1, 47.3, 44.2, 36.5, 46.3 (2×), 43.2 (2×), 40.7, 32.3, 41.3, 40.8, 32, 31.8, 40, 53.8, 36, 32.2, 22.8, 36.3, 39.9, 42.4, 58.2, 45.1, 60.5, 41.8, 35.2, 36.8, 37.6%” in test [2] (runs of 1996). Moreover, the growth entry in test [2] (runs of 1997) was “inactive: 36.7, 34.8 (2×), 38.7, 55.8, 40, 37.1, 48.9, 32.8, 46.1, 37.5 (2×), 40.4, 12.8, 41.6, 50.6, 48.3, 42.7, 23.5, 48.8, 26.1, 38.2, 39.6 (2×), 22.2, 46, 32.6, 43.5, 43.9, 33.8, 29.9, 39.2, 49.7, 34.9, 47.8, 46.8, 41.2, 37.6, 52.2, 39.3, 30.6, 33.5, 47, 46.9, 11.6% and active: -99.3%, 9.95%”; in test [2] (runs of 1998) it was “inactive: 41.5, 32.6, 51.5, 34.3, 32.4, 43.2, 40.9, 55, 29.3, 32.9, 34.8, 14.7, 30.5, 29.7, 33.3, 26, 37.7, 45.7, 26.6, 28.4, 25.6, 25.9, 43.9, 33.5, 33% and active: -0.476%”; in test [2] (runs of 1999) it was “inactive: 26.2, 34.6, 22.7, 29.8, 31.6% and active: 8.17, -100 (3×), -34.8, -35.5, -92.9, -54.3, 1.34, -75.8, -68.6, -57%”.
